PubChem BioAssay AID686978 (National Center for Advancing Translational Sciences (NCATS), 2013)
The campaign covered roughly 420,000 compounds. About 64,000 (15%) were called active. This list was built around the results that the source calls inconclusive (neither active nor inactive); the mix of calls is not that of the screen. Calls come from the whole dose curve; as a rule, active = well fitted inhibition curve with a large enough effect; inconclusive = small, poorly fitted or top-dose-only effect; inactive = flat fitted curve, though single readings scatter. Potencies of inconclusive entries are left out as doubtful fits.

Experiment: qHTS for Inhibitors of human tyrosyl-DNA phosphodiesterase 1 (TDP1): qHTS in cells in absence of CPT; note: nearly all actives have a fitted effect of over 55% in size
Conditions: DT40 Tdp1-/- hTDP1 cells, no CPT, ATP luminescence, 48 h; activity change, negative = growth inhibition: at 46.2 µM (top of the series)
How it was run: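 A cellular qHTS used chicken DT40 cells lacking endogenous Tdp1 but carrying stably transfected human TDP1. Compounds were applied without camptothecin, and cell growth kinetics were judged by ATP-dependent luminescence after ≥48 hr.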
% is set by controls: 0 for no effect and ±100 for the full control effect; potency is the fitted concentration of half-maximal effect; tags give direction and shape of the fitted curve.

Row | Structure (SMILES) | Potency | activity change, negative = growth inhibition
1 | CSc1ccccc1N1CCN(C(=O)Nc2ccc3c(c2)NC(=O)CO3)CC1 | inconclusive [inhibitor, single point] | 
2 | NS(=O)(=O)c1ccc(NC(=O)C2CCCN(S(=O)(=O)c3ccc(F)cc3)C2)cc1 (centres undefined) | inconclusive [inhibitor, full curve, poor fit] | 
3 | C[C@]12c3[nH]c4ccc(Cl)cc4c3CCN1C(=O)[C@@H](CC(=O)NCCCn1ccnc1)C[C@@H]2C(=O)N1CCCCC1 | inconclusive [inhibitor, partial curve] | 
4 | Cc1ccc(-n2c(SCC(=O)c3ccccc3)nc3c([nH]c4ccccc43)c2=O)cc1 | active: 3.66 µM | 
5 | Cc1ccccc1CSCc1nc(N)nc(Nc2ccccc2C)n1 | inconclusive [inhibitor, single point] | 
6 | NC(=O)NC[C@@H]1CC[C@@H](Cc2ccc(-c3ccccc3)cc2)O1 | inconclusive [inhibitor, single point] | 
7 | CC(C)C(=O)Nc1ccc2nc(SCC(=O)N3CCc4ccccc43)sc2c1 | active: 4.11 µM | 
8 | CC1NC(=O)NC1CCCCC(=O)O (centres undefined) | inconclusive [inhibitor, single point] | 
9 | c1ccc2c(c1)CCCC2C1=NCCN1 (centres undefined) | inactive | 
10 | COc1ccccc1CNC(=O)c1ccc2c(c1)N(Cc1c(F)cccc1Cl)C(=O)CS2 | inconclusive [inhibitor, single point] | 
11 | Cc1cccc(N2CCN(C(=S)NC3CCCCC3)CC2)c1C | active: 16.4 µM | 
12 | CCOC(=O)C(C)Oc1cccc2c(=O)n(CC(=O)Nc3ccc(OCC)cc3)ccc12 (centres undefined) | inconclusive [inhibitor, single point] | 
13 | COC(=O)C1=C(CSc2nncn2C)NC(=O)NC1c1ccc(F)cc1 (centres undefined) | inactive | 
14 | COc1cc(NS(=O)(=O)c2cc3c(cc2C)NC(=O)CO3)cc(OC)c1 | inconclusive [inhibitor, single point] | 
15 | Cc1c(CN2CCN(c3cccc(C(F)(F)F)c3)CC2)c(=O)n(-c2ccccc2)n1C | inconclusive [inhibitor, single point] | 
16 | CC(C)CC(=O)N/C(N)=N/c1nc2ccccc2s1 | inconclusive [inhibitor, single point] | 
17 | CCOc1cc(C2NN=C(c3ccccc3)S2)ccc1OCc1ccccc1Cl (centres undefined) | active: 16.4 µM | 
18 | COC(=O)Nc1ccc(SCC(=O)c2ccc(Cl)cc2)cc1 | inconclusive [inhibitor, single point] | 
19 | CCOc1ccccc1N1CCN(S(=O)(=O)c2ccc(C3CCCCC3)cc2)CC1 | inconclusive [inhibitor, single point] | 
20 | Cc1cc(C)cc(C(=O)NN2CCOCC2)c1 | inactive | 
21 | CCCCN(C)Cc1c(C)[nH]c2c(ccc3ccccc32)c1=O | inactive | 
22 | COc1cc(C(=O)NCc2cc(C)nc3ccccc23)cc(OC)c1OC | inconclusive [inhibitor, single point] | 
23 | O=S(=O)(Cc1ccccc1)NC1c2ccccc2Oc2ccccc21 | active: 20.6 µM | 
24 | CC(C)n1cnc2c(Nc3cccc(F)c3)nc(NCCO)nc21 | inactive | 
25 | CC(=O)NC(=S)Nc1ccc(NC(=O)c2cccs2)cc1 | inconclusive [inhibitor, single point] | 

Row | Structure (SMILES) | Potency | activity change, negative = growth inhibition
26 | CC(C)NC(=O)C1(O)c2ccccc2NC(=O)N1c1ccc(Cl)c(Cl)c1 (centres undefined) | inactive | 
27 | Cc1cnc(C(=O)N(c2ccccc2)C(c2ccccc2)c2nc3ccccc3[nH]2)cn1 (centres undefined) | inconclusive [inhibitor, single point] | 
28 | COc1ccc2[nH]c3c(=O)n(Cc4ccco4)cnc3c2c1 | inactive | 
29 | CCCN(CCC)S(=O)(=O)c1ccc(C(=O)Nc2nnc(CSC)o2)cc1 | inconclusive [inhibitor, single point] | 
30 | Cc1cc(C(=O)N2CCN(S(=O)(=O)c3ccccc3)CC2)c(C)o1 | inconclusive [inhibitor, single point] | 
31 | Cc1ccc2cc(CCl)c(Cl)nc2c1 | active: 20.6 µM | 
32 | CCCn1cnc2cc(NCc3ccc(OC)cc3OC)ccc21 | active: 23.1 µM | 
33 | Cn1c(-c2ccc(F)cc2)cc2onc(-c3c(F)cccc3Cl)c2c1=O | inconclusive [inhibitor, partial curve] | 
34 | CCOc1ccc(NS(=O)(=O)c2ccc(C(=O)NCC(C)(C)N3CCOCC3)cc2)cc1 | inconclusive [inhibitor, single point] | 
35 | CC(C)CC(=O)Nc1ccccc1-c1nnn(CC(=O)N2CCc3ccccc3C2)n1 | inconclusive [inhibitor, single point] | 
36 | CCOc1ccc(OCCC(=O)OCC(=O)Nc2cc(S(=O)(=O)N3CCOCC3)ccc2C)cc1 | inconclusive [inhibitor, single point] | 
37 | CCOc1ccc(CC(=O)N2CCc3cc(OC)c(OC)cc3C2COc2ccc3c(C)cc(=O)oc3c2)cc1 (centres undefined) | inactive | 
38 | O=C(CCN1N=C(c2ccccc2)CCC1=O)NC1CCCCC1 | inactive | 
39 | CC(NC(=O)c1ccco1)c1nnc2n1CCN(Cc1cccc(Cl)c1)CC2 (centres undefined) | inactive | 
40 | Oc1ccc(NCc2ccc(OCc3ccccc3)cc2)cc1 | active: 11.6 µM | 
41 | CCC(C)NC(=O)CSc1nnc(-c2cc(OC)c(OC)c(OC)c2)c(-c2cc(OC)c(OC)c(OC)c2)n1 (centres undefined) | inactive | 
42 | CCCOc1ccc(NC(=O)C(=O)NCCCN2CCOCC2)cc1 | inactive | 
43 | Cc1ccc(CNC(=O)CS(=O)(=O)Cc2nc(-c3ccccc3C)oc2C)cc1 | active: 16.4 µM | 
44 | O=C(CSc1nc2ccccc2n1CC(=O)N1CCCC1)Nc1nccs1 | inactive | 
45 | Cc1cc(F)ccc1NCC(=O)Nc1ccccc1Br | inconclusive [inhibitor, single point] | 
46 | CCOc1ccc(NC(=O)CCc2c(C)nc3cc(-c4ccc(Cl)cc4)nn3c2C)cc1 | active: 16.4 µM | 
47 | Cc1c(C2CC(=O)N(c3ccccc3)C2=O)[nH]n(-c2ccccc2)c1=O (centres undefined) | inconclusive [inhibitor, partial curve] | 
48 | COc1ccc(C(=O)NCCCNC(=O)c2cccnc2)cc1Br | inactive | 
49 | O=C(NCCN1CCC(n2c(=O)[nH]c3ccccc32)CC1)c1ccccc1C(F)(F)F | inconclusive [inhibitor, partial curve] | 
50 | CC(C)CNS(=O)(=O)c1ccc(N2CCCCS2(=O)=O)cc1 | inconclusive [inhibitor, single point] | 

Row | Structure (SMILES) | Potency | activity change, negative = growth inhibition
51 | Cc1ccc(/C=N/NC(=O)c2cc(C)oc2C)o1 | inactive | 
52 | Cc1ccc(S(=O)(=O)N2CCN=C2SC(C)c2ccccc2)cc1 (centres undefined) | inconclusive [inhibitor, single point] | 
53 | Cc1ccc(NC(=O)c2sc(-n3nc(C)c(Cc4ccc5c(c4)OCO5)c3C)nc2C)cc1Cl | inconclusive [inhibitor, single point] | 
54 | CN(C)S(=O)(=O)c1cc(NC(=O)COC(=O)Cc2cccc3ccccc23)ccc1Cl |  | inconclusive: -30.1% [inhibitor]
55 | Cc1cccc(-c2noc(CNC(=O)c3ccccc3Br)n2)c1 | inconclusive [inhibitor, single point] | 
56 | O=C(Cc1cnn(-c2ccccc2)c1)c1ccc(O)c(O)c1O | inconclusive [inhibitor, single point] | 
57 | COC(=O)c1[nH]c2cccc(OC)c2c1NC(=O)CN(C)CC1OCCO1 | inactive | 
58 | O=c1c(N=Nc2ccc(O)cc2)c(-c2ccccc2)[nH]n1-c1ccc([N+](=O)[O-])cc1 | active: 16.4 µM | 
59 | CCOc1ccc(Oc2cc(NC(=O)c3ccco3)cc([N+](=O)[O-])c2)cc1 | active: 16.4 µM | 
60 | CC1CCN(c2nc(-c3ccccc3O)nc3ccccc23)CC1 | inconclusive [inhibitor, partial curve] | 
61 | Cc1cccc(Cn2c(SCc3ccc(C(=O)NC4CCCC4)cc3)nc3ccncc32)c1 | inconclusive [inhibitor, single point] | 
62 | Cc1nc2ccc([N+](=O)[O-])cc2c(=O)n1Cc1ccccc1Br | inactive | 
63 | COc1ccc(NC(=S)Nc2ccc(F)cc2)c(OC)c1 | inconclusive [inhibitor, single point] | 
64 | CC1CCN(S(=O)(=O)c2ccc3c(c2)oc(=O)n3CC(=O)O)CC1 | inactive | 
65 | COc1cc2c(cc1OC)C(c1ccc3c(c1)OCO3)C1=C(CC(C)(C)CC1=O)N2 (centres undefined) | inconclusive [inhibitor, single point] | 
66 | O=C1c2cccnc2C(=O)N1c1nc(-c2ccccc2)cs1 | inactive | 
67 | COc1ccc(CC(=O)Nc2ccc3nc(N4CCCCC4)cc(C)c3c2)cc1 | inconclusive [inhibitor, single point] | 
68 | N#Cc1cccc(NC(=O)N2CC3(CCN(C(=O)c4cccc(F)c4)CC3)C2)c1 | inactive | 
69 | O=c1oc2c3c4c(cc2c(C(F)(F)F)c1CCN1CCOCC1)CCCN4CCC3 | active: 16.4 µM | 
70 | COC(=O)c1ccc(C2C(C(=O)c3cc4ccccc4o3)=C(O)C(=O)N2c2cc(C)on2)cc1 (centres undefined) | inactive | 
71 | CCN(CC)S(=O)(=O)c1cccc(C(=O)OCC(=O)c2ccc3c(c2)OCCO3)c1 | inconclusive [inhibitor, partial curve, poor fit] | 
72 | CC(=O)NS(=O)(=O)c1ccc(NC(=O)c2ccc3c(c2)NC(=O)CS3)cc1 | inactive | 
73 | COc1ccc(Cn2c(=O)c3ccccc3n3c(-c4cccc(OC)c4OC)nnc23)cc1 | active: 16.4 µM | 
74 | CNC(=O)c1ccc(CN(C)C(=O)/C=C/c2ccc(S(=O)(=O)N3CCCCCC3)cc2)cc1 | active: 23.1 µM | 
